Here are results for 22 molecules from PMC12136788.

B1: chr22:41863543:41863544:-_ENSG00000100410_ENST00000216252|hu_hu|FALSE|FALSE (ssRNA)
RNA: GGGAGUUCUACAGUCCGACGAUCGGCAUCAGAGACCCCAGGUCCUCCACAGAUCACACAGCGCCCCUGGUAAGAUCCAUAGUUACACUCAUCACAUAUGCGCACCAGAGUGCAGGGACGCACAUAGGAGUCACAAAUCACACACAACAGAGGAUUGAGCAUCA
B2: 97009035_97009955_691_CDS_ENSG00000121152_ENST00000240423|human|control|control (ssRNA)
RNA: GGGAGUUCUACAGUCCGACGAUCAUCUGCUUCGGAGACAUUGAGGUUGUUUAUGUUCUGCUCAAUAGUUCUGUGUAAGUGCUUCUUCUUUGGCUUUACAGCCUUUUUGGUUGUUCCCAUUUCAGUAGCACUUCCAUCAGCAACCAACAGAGGAUUGAGCAUCA
B3: chr8:104447970:104447971:+_ENSG00000164934_ENST00000297579|hu_hu|hu_hu_hu_mus_False|8_18 (ssRNA)
RNA: GGGAGUUCUACAGUCCGACGAUCAUACACUUCCCUGCUUCGGCUCUUGUCCACAGGAAAGAUUCUAAUAGACUUAUCAAAGCUGGCAGACACAAAUUCCUUCCCAGUGGGAGAGUAAUCCACAUCAAGCACUGCAGACACGUGCAACAGAGGAUUGAGCAUCA
B4: chr1:45478652:45478653:+_ENSG00000126088_ENST00000246337|hu_mus|motif|central (ssRNA)
RNA: GGGAGUUCUACAGUCCGACGAUCGCAAGCCUCGGGAGAUCGGCAGGUGCUGAAGAAGUCCUGGGCAGCCCUGGUUUCCCGGAACUCUGGUAAGUAGCGGCCUGCCUGUCUCAUGCACCAAACGGGAGUAUAGUCUGUUUCCUCCAACAGAGGAUUGAGCAUCA
B5: chr2:216981417:216981418:+_ENSG00000079246_ENST00000392132|hu_hu|hu_hu_hu_mus_True|1_28 (ssRNA)
RNA: GGGAGUUCUACAGUCCGACGAUCCUGAUACUGGUCCUUGCCAGCAAGGGCAUUAUCAGUGCCAUCUGUGCCAUAGAGGACUAACGCAAUCUCAUCUUUGCUCUCCGCAAACACCUGUCGUUGGACAAACAUAGUCAUCACCUUCAACAGAGGAUUGAGCAUCA
B6: 154962739_154962859_931_3pUTR_ENSMUSG00000042751_ENSMUST00000043313|mouse|control|control (ssRNA)
RNA: GGGAGUUCUACAGUCCGACGAUCGGUCUGACAGUGUGUUGGCAGAGGACACGGGGAGAAUAGAGCAGAGAGCUGGGUAUCCGCUAGCCCGAGGCGUUGAUGUACAGCUGACUCUUGAGGAUGUAAUCGAUGACUGGCUGGGACCAACAGAGGAUUGAGCAUCA
B7: chr10:70028019:70028020:-_ENSMUSG00000037747_ENSMUST00000162251|mus_mus|FALSE|FALSE (ssRNA)
RNA: GGGAGUUCUACAGUCCGACGAUCAGCCUUCUCCAGCAGCUGUGUUAGAUGAACUUUGGAGUAAUCUGCUGUACAGAAUUCUAUAAUCUCACUCCAUUCAGACACGACGUAAUCACCAUCAACCUGUUUUGAGGCAGUCUGUACCAACAGAGGAUUGAGCAUCA
B8: chr8:95500983:95500984:-_ENSG00000164944_ENST00000437199|hu_hu|hu_hu_hu_mus_True|38_58 (ssRNA)
RNA: GGGAGUUCUACAGUCCGACGAUCAGAACACAUCUAUCGAGUAAAGGACCGUACAUGACGGCCUCUACCACUGCCUCCCACUAACAACUUUCCUCUCUGAGCCUCCAUGCCGCUAUUUGUACUAGCCCAGGACGGUCCCAGGCCCAACAGAGGAUUGAGCAUCA
B9: chr1:35656432:35656433:-_ENSG00000116560_ENST00000357214|perfect_dup|FALSE|FALSE (ssRNA)
RNA: GGGAGUUCUACAGUCCGACGAUCAGAUCUUCCACGAUCAUCCACUAUUACAACAGCCCUUUCAAUAGGACCAAAUUGGCUAAAGGCUUCUUCCAACAGUUCAUUGGAAACAUAAGGUGAAAGAUUACGAACAGAAAGGGCAGCCAACAGAGGAUUGAGCAUCA
B10: chr11:95591783:95591784:-_ENSG00000087053_ENST00000352297|hu_hu|motif|central (ssRNA)
RNA: GGGAGUUCUACAGUCCGACGAUCCUCAAAUAUGGAUCUUCUUGUCCGCCCCUCAGGUUUAUGAGCAAAUCGUAAAUUCCGGAUAUCCUUACACACAGUUUCUAGUCCAUAAGAAUUUUCACCUCGACUAGAAGCACCACCAAUCAACAGAGGAUUGAGCAUCA
B11: chrX:109746815:109746816:+_ENSMUSG00000025529_ENSMUST00000071814|perfect_dup|motif|central (ssRNA)
RNA: GGGAGUUCUACAGUCCGACGAUCGGUUUUAAAGUCACAAUGCCUACACUGGUGAAUCUUCCUACCCUUAUGAAUAUCACGGUGUUUUUUAAGCUCUGAAGGACGAUGAAAACCUUUAUCACAGACUUCACAUUUGUGAGGAAACAACAGAGGAUUGAGCAUCA
B12: chr1:39494447:39494448:+_ENSG00000168653_ENST00000372967|hu_mus|hu_hu_hu_mus_False|8_68 (ssRNA)
RNA: GGGAGUUCUACAGUCCGACGAUCGCACCGAGCGGCGUUCUUAUAGGGCUGUUCUGCGCUUAGGAACGUCAACCAUCGGUCCAGGCUGAUGCCCAGCUUUUUCUGUAUGUCAAGGAAAGGCAUGGCUGAUGCUCGUGCUUGUCACAACAGAGGAUUGAGCAUCA
B13: chr3:176767854:176767855:-_ENSG00000177565_ENST00000430069|hu_hu|hu_hu_hu_mus_False|58_78 (ssRNA)
RNA: GGGAGUUCUACAGUCCGACGAUCGACAUCCUUGUUACUGGGCACGUCCUGCCCUCCUUCUCGUAUACAGUGUCUAAGUACUAACUGCGUAGGGCCACUCGUGCUGUUCUCACUGAGGUUCCAGAUUCUUGCCGUGGAGUCUCCCAACAGAGGAUUGAGCAUCA
B14: 39662316_39662436_4025_3pUTR_ENSG00000078142_ENST00000262039|human|control|control (ssRNA)
RNA: GGGAGUUCUACAGUCCGACGAUCGUAUUUUCAUUUUUACCAUUUUUCUAAUCAGCAGGUAUGUUUUAUACAAACUAUAUUCCAUAUGCCUCUAGAGUGUCUCUUAAUUACAUGCUUGCCCUCUCGCCGGUAACCCCACUCUGACAACAGAGGAUUGAGCAUCA
B15: chr12:105536279:105536280:+_ENSG00000136051_ENST00000332180|hu_mus|hu_hu_hu_mus_True|8_38 (ssRNA)
RNA: GGGAGUUCUACAGUCCGACGAUCAGCACUGAACAUGUAAUGUAAUCUGGCUGCAUCGACAGCAUUUUCAUAUACAUCAUCUAAAUAAAUCGGGAAGACAGCUCGAUGCCAGUAUAAAAAACAGCAGUCACAUUGUGCUUGGACCAACAGAGGAUUGAGCAUCA
B16: 24728093_24728282_11095_CDS_ENSMUSG00000032855_ENSMUST00000035565|mouse|control|control (ssRNA)
RNA: GGGAGUUCUACAGUCCGACGAUCAGGGUGAAGCCGCUUGGCCACAAGGGAGAAGUAGAGGGCUUCCAGCAGGACCUUAAGGGGCUCCCAGCCAAGAAAGGAGGCCAGGAAGCUGGAGCUGCUUGAGAGAAGCCACAUGACACUCAACAGAGGAUUGAGCAUCA
B17: chr7:141441981:141441982:+_ENSG00000106028_ENST00000265304|hu_mus|hu_hu_hu_mus_False|1_38 (ssRNA)
RNA: GGGAGUUCUACAGUCCGACGAUCCUCAUGUCUUACAAACUGACGAAAUACCUGUAACACAGGUCUUCGAAACAUGGCUUCUGUUUUUCUUACAACCAGUCUAAUCUGCUUUUCCUAAAGGAAAGAAAGAAAAGAGAAGCCCAGCAACAGAGGAUUGAGCAUCA
B18: 87157000_87157120_506_3pUTR_ENSMUSG00000021252_ENSMUST00000021676|mouse|control|control (ssRNA)
RNA: GGGAGUUCUACAGUCCGACGAUCAGAGGGUGAAUGAAGAAGACAGUGGAGGUGGAAGACGAUGUUUCAGAGCUGGCAAGGCUGGCCUCAAUUUCUUUUCUUCUGUCUGGAUACUGGUUCUGCCUCUAGGUACCGGAGCCCGACCAACAGAGGAUUGAGCAUCA
B19: chr16:56712917:56712918:-_ENSMUSG00000022757_ENSMUST00000065515|mus_hu|FALSE|FALSE (ssRNA)
RNA: GGGAGUUCUACAGUCCGACGAUCAUGAUUAGCUUCCCACUUAGAUCCAACUGUCCGUUCAUGGUGGACUCCAGGAUGUUCUAUAUAUACAACUCUAGAGAAAGACCAGGACGCAUGCGCGACGGCGCGAGGCGCAGGGCUGGCCAACAGAGGAUUGAGCAUCA
B20: chr7:75932113:75932114:+_ENSG00000106211_ENST00000248553|hu_hu|hu_hu_hu_mus_False|1_108 (ssRNA)
RNA: GGGAGUUCUACAGUCCGACGAUCCUGCGACCACUCCUCGGGCAACCGGGGCACCCCGAAAGCUUGAUCGAAGAGGCGGCUGUGUGCAGGGUACCAGUCCCGGAAUGGUUCCCAGCUCGGGCUCCGCAGCAGCGAGAGGACGCGCAACAGAGGAUUGAGCAUCA
B21: chr3:179287964:179287965:+_ENSG00000136518_ENST00000429709|hu_hu|hu_hu_hu_mus_True|38_78 (ssRNA)
RNA: GGGAGUUCUACAGUCCGACGAUCCUUGAGUGGUGAGAUGGCCUCCAUGUUCUCCCUCGGAACACGCAGGGCAUUGGUGUCUAUGUAGUAGGUGGGCCCGCCUUGUUUGCCUUUGUCACCAUCAAUCUCCAUCAUUGUACUUCCCAACAGAGGAUUGAGCAUCA
B22: chr4:83122263:83122264:-_ENSMUSG00000028484_ENSMUST00000107214|mus_hu|FALSE|FALSE (ssRNA)
RNA: GGGAGUUCUACAGUCCGACGAUCAUUUGAUUGUUUAGUUGCUGCCUGUUGACUUGAAAAUUUCACUUUUGGAUUGUUAUCUAUCUCCCAUAAACCUUCAUUAAAACCUUUUCUUUUAUUUGGUUUGCCAUACUUUUCCUUAUUCAACAGAGGAUUGAGCAUCA

The list shows a part of the results.

In this experiment the target is T1, UNK ZnF1-3 (human, UniProt Q9C0B0 31-174).
T1 sequence: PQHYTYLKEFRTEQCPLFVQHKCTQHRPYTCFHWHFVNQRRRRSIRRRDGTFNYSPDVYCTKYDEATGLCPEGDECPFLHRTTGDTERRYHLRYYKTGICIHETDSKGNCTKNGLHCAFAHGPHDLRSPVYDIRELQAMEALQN
In words: nsRBNS (natural sequence RNA bind-n-seq); RBNS binding buffer (assumed for nsRBNS): 25 mM Tris pH 7.5, 150 mM KCl, 3 mM MgCl2, 0.01% Triton X-100, 500 ug/ml BSA, 20 U/ml SUPERase-In, 4 C; UNK is unkempt and MSI1 is Musashi-1; names of the RNAs are library labels; protein concentration not given here; high values mean tight binding.
Molecule B1 yielded a binding signal of 1.51 enrichment R.

As for B2, the binding signal was 0.243 enrichment R.

On to B3, for which the binding signal worked out at 0.898 enrichment R.

For the molecule B4, the binding signal came to 0.825 enrichment R.

Turning to B5, the binding signal was found to be 0.793 enrichment R.

Molecule B6 showed a binding signal of 1.86 enrichment R.

B7: the binding signal was found to be 1.74 enrichment R.

B8 came in with a binding signal of 1.13 enrichment R.

As for B9, the binding signal is 1.07 enrichment R.

Take B10: the binding signal was 1.01 enrichment R.

B11 had a binding signal of 0.879 enrichment R.

The molecule B12 gave a binding signal of 0.636 enrichment R.

Molecule B13 displayed a binding signal of 0.551 enrichment R.

In turn, B14 gave a binding signal of 0.617 enrichment R.

As for B15, the binding signal was 3.02 enrichment R.

The molecule B16 showed a binding signal of 1.01 enrichment R.

On to B17, for which the binding signal came out at 0.521 enrichment R.

In the case of B18, the binding signal came to 1.35 enrichment R.

B19 returned a binding signal of 1.02 enrichment R.

Take B20: the binding signal worked out at 0.679 enrichment R.

For B21, the binding signal was 0.432 enrichment R.

The molecule B22 displayed a binding signal of 0.439 enrichment R.
